The other results are listed elsewhere or left out.
Test system: S. aureus RN4220
Assay: growth inhibition call (relative growth <= 0.2)
Settings: 50 µM

Growth inhibition call, inactive:
C[C@@H]1CN([C@H](C)CO)C(=O)Cc2cc(NC(=O)c3ccncc3)ccc2O[C@@H]1CN(C)Cc1ccncc1
COCCNC(=O)C[C@H]1CC[C@H]2[C@H](COc3ccc(NC(=O)Nc4cccc(F)c4)cc3C(=O)N2C)O1
Cc1ccc(S(=O)(=O)Nc2ccc3c(c2)C(=O)N([C@H](C)CO)C[C@H](C)[C@@H](CN(C)S(=O)(=O)c2ccc(C)cc2)OCCCC[C@H](C)O3)cc1
C[C@@H]1CN([C@H](C)CO)C(=O)c2cc(NC(=O)Nc3ccc4c(c3)OCO4)ccc2O[C@@H]1CN(C)Cc1ccc(Oc2ccccc2)cc1
C[C@@H]1CN([C@@H](C)CO)C(=O)c2cccc(NC(=O)C3CCCCC3)c2O[C@@H]1CN(C)S(=O)(=O)c1cn(C)cn1
CO[C@@H]1CN(C)C(=O)c2ccc(NS(=O)(=O)CC(F)(F)F)cc2OC[C@@H](C)N(C(=O)NC(C)C)C[C@@H]1C
O=C(CCCCCCC(=O)Nc1ccc([C@H]2C[C@H](c3ccccc3)O[C@H](c3ccc(Oc4ccccc4)cc3)O2)cc1)NO
COc1ccc(S(=O)(=O)N2C[C@@H](O)COC[C@H]3O[C@H](CC(=O)NCc4ccc(Cl)c(Cl)c4)CC[C@@H]32)cc1
OC[C@H]1COCc2cnnn21
C[C@@H]1CCCCO[C@@H](CN(C)S(=O)(=O)c2ccc(Cl)cc2)[C@@H](C)CN([C@@H](C)CO)C(=O)c2cc(NC(=O)Nc3ccccc3)ccc2O1
Cc1noc(C)c1S(=O)(=O)N(C)C[C@H]1Oc2ccc(NC(=O)CCCN(C)C)cc2C(=O)N([C@@H](C)CO)C[C@H]1C
CN(C)CC(=O)N[C@H]1CC[C@@H](CCNC(=O)C2CCC2)O[C@H]1CO
NNC(=O)CS(=O)(=O)c1ccc(Cl)cc1
COc1cccc(OC)c1OCCNCCO
C[C@@H]1CCCCO[C@H](CN(C)C(=O)Nc2cccc3ccccc23)[C@H](C)CN([C@@H](C)CO)C(=O)c2cc(NC(=O)C3CCCCC3)ccc2O1
C[C@@H]1CN([C@@H](C)CO)C(=O)c2cc(NC(=O)C3CCCCC3)ccc2O[C@@H](C)CCCCO[C@H]1CN(C)C(=O)Nc1ccc2c(c1)OCO2
C[C@@H]1CCCCO[C@H](CN(C)S(=O)(=O)c2cccs2)[C@@H](C)CN([C@@H](C)CO)C(=O)c2cc(NC(=O)Cc3ccccc3)ccc2O1
C[C@@H]1CCCCO[C@@H](CN(C)Cc2ccc(Cl)c(Cl)c2)[C@H](C)CN([C@H](C)CO)C(=O)c2cc(NS(=O)(=O)c3ccc(Cl)cc3)ccc2O1
C[C@@H]1CN([C@H](C)CO)C(=O)Cc2cc(NC(=O)Cn3cnnn3)ccc2O[C@H]1CN(C)C(=O)Nc1ccc(F)cc1
COc1ccc(S(=O)(=O)N(C)C[C@@H]2Oc3ccc(NC(=O)CCN4CCOCC4)cc3C(=O)N([C@@H](C)CO)C[C@H]2C)cc1
C[C@@H]1CCCCO[C@H](CN(C)C(=O)c2ccccc2)[C@@H](C)CN([C@H](C)CO)C(=O)c2cc(NC(=O)CCC(F)(F)F)ccc2O1
C[C@@H]1CCCCO[C@H](CN(C)S(=O)(=O)c2cccs2)[C@@H](C)CN([C@@H](C)CO)C(=O)c2cc(NC(=O)CCC(F)(F)F)ccc2O1
Cc1noc(C)c1S(=O)(=O)Nc1ccc2c(c1)C(=O)N([C@H](C)CO)C[C@@H](C)[C@H](CN(C)S(=O)(=O)c1cn(C)cn1)OCCCC[C@@H](C)O2
COc1ccc(C2=C(N)C(=O)NC2=O)cc1OC
CC(C)c1nc2cc3sc(C(C)C)nc3cc2s1
Cc1noc(C)c1NC(=O)N(C)C[C@H]1Oc2ccc(NC(=O)Nc3cccc4ccccc34)cc2C(=O)N([C@H](C)CO)C[C@H]1C
Cc1noc(C)c1NC(=O)Nc1ccc2c(c1)C(=O)N([C@@H](C)CO)C[C@H](C)[C@@H](CN(C)S(=O)(=O)c1cn(C)cn1)O2
CCCC#Cc1ccc2c(c1)O[C@H](CN(C)S(=O)(=O)c1cccc(OC)c1)[C@H](C)CN([C@@H](C)CO)S2(=O)=O
C[C@H]1CCCCO[C@H](CN(C)Cc2ccccc2)[C@@H](C)CN([C@@H](C)CO)C(=O)c2cc(NS(=O)(=O)c3ccc(F)cc3)ccc2O1
Cl.NCCS
C[C@@H]1CCCCO[C@H](CN(C)S(=O)(=O)c2ccc(Cl)cc2)[C@@H](C)CN([C@@H](C)CO)C(=O)c2cc(NC(=O)Nc3cccc4ccccc34)ccc2O1
C[C@@H]1CN([C@@H](C)CO)C(=O)c2cc(NC(=O)CCCN(C)C)ccc2O[C@@H]1CN(C)Cc1ccncc1
CN(C)CCCNC(=O)C[C@H]1C=C[C@@H](NS(=O)(=O)c2ccccc2)[C@H](CO)O1
C[C@@H]1CN([C@H](C)CO)C(=O)c2cc(NC(=O)Nc3ccc(F)cc3)ccc2O[C@@H](C)CCCCO[C@H]1CN(C)C(=O)NC1CCCCC1
CN1C(=O)c2cc(NC(=O)c3cscn3)ccc2OC[C@H]2O[C@@H](CC(=O)N3CCOCC3)CC[C@H]21
COc1ccc(C[C@H]2c3cc(OC)c(OC)cc3CC[N@+]2(C)CCC(=O)OCCCCCOC(=O)CC[N@+]2(C)CCc3cc(OC)c(OC)cc3[C@@H]2Cc2ccc(OC)c(OC)c2)cc1OC
C[C@@H]1CN([C@@H](C)CO)C(=O)Cc2cc(NS(=O)(=O)c3ccc(Cl)cc3)ccc2O[C@H]1CN(C)Cc1ccc(Oc2ccccc2)cc1
COc1cc(OC)nc(N)n1
CC(C)CC#Cc1ccc2c(c1)O[C@@H](CN(C)CC1CCOCC1)[C@H](C)CN([C@@H](C)CO)S2(=O)=O

Growth inhibition call, active:
CC1=C(C(=O)O)N2C(=O)[C@@H](NC(=O)[C@H](N)c3ccc(O)cc3)[C@H]2SC1
